Source: PubChem BioAssay AID686979 (National Center for Advancing Translational Sciences (NCATS), 2013)
Screen size: about 420,000 compounds; about 50,000 (12%) were called active. Inconclusive means that the source gave no clear call. Such entries were picked first, then a sample of the others. Calls come from the whole dose curve; as a rule, active = well fitted inhibition curve with a large enough effect; inconclusive = small, poorly fitted or top-dose-only effect; inactive = flat fitted curve, though single readings scatter. No potency is given beside an inconclusive call; the fits are too rough.

Test: qHTS for Inhibitors of human tyrosyl-DNA phosphodiesterase 1 (TDP1): qHTS in cells in presence of CPT; note: nearly all actives have a fitted effect of over 55% in size
Settings: chicken DT40 Tdp1-/-;hTDP1 cells + 20 nM CPT, ATP luminescence, 48 h; activity change, negative = growth inhibition: at 46.2 µM (top of the series) unless noted
Method in brief: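 Chicken DT40 Tdp1-/- cells complemented with human TDP1, 400 cells/well, exposed to compounds plus 20 nM camptothecin for at least 48 h at 37 C; viability read as ATP content by CellTiter-Glo luminescence.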
% is set by controls: 0 for no effect and ±100 for the full control effect; potency is the fitted concentration of half-maximal effect; tags give direction and shape of the fitted curve.

Question: Which “activity change, negative = growth inhibition” value does the source give for Cc1ccc2nc(COc3cccc(NC(=O)COc4ccccc4F)c3)cc(=O)n2c1 here?
Answer: inactive: -19.8%

Question: Which Potency does the source give for Cc1ccc(S(=O)(=O)N2CCN(C3CC(=O)N(Cc4ccccc4)C3=O)CC2)cc1C (stereo not given) here?
Answer: inconclusive [inhibitor, single point]

Question: Which Potency does the source give for CS(=O)(=O)N1CCC(C(=O)Nc2ccc(Cl)c(Cl)c2)CC1 here?
Answer: inconclusive [inhibitor, single point]

Question: With NC(=O)CC(NC(=O)Cc1ccc(Cl)cc1)c1ccc(NC2CCCC2)c([N+](=O)[O-])c1 (stereo not given) as the compound, how does the Potency read?
Answer: inconclusive [inhibitor, single point]

Question: For CCOc1ccc(C(O)(c2ccccc2)C(CN2CCCC2)c2ccccc2)cc1 (stereo not given), which Potency is on record?
Answer: inconclusive [inhibitor, single point]

Question: Which Potency does the source give for CCN(c1ccccc1)S(=O)(=O)c1ccc(OC)c(NC(=O)CNCCc2ccccc2)c1 here?
Answer: active: 25.9 µM

Question: Which Potency does the source give for C/[N+]([O-])=C\CC(=O)c1ccc(-c2ccccc2)cc1 here?
Answer: inconclusive [inhibitor, single point]

Question: For CCC(C(=O)OCc1csc(CC(=O)Nc2ccccc2C)n1)c1ccccc1 (stereo not given), which Potency is on record?
Answer: inconclusive [inhibitor, single point]

Question: Which “activity change, negative = growth inhibition” value does the source give for Cc1ccc(NC(=O)Nc2ccc(C(=O)N3CCOCC3)cc2)cc1 here?
Answer: inactive: -1.72%

Question: Which Potency does the source give for COc1ccccc1N1CCN(C(=O)C2CCN(C(=O)c3cccc(Cl)c3)CC2)CC1 here?
Answer: inconclusive [inhibitor, partial curve]

Question: With CCCN(CCC)CC(O)CN1C(=O)NC(C)(C)C1=O (stereo not given) as the compound, how does the “activity change, negative = growth inhibition” value read?
Answer: inactive: -2.74%

Question: With C=CC#CC1(O)CC(C)[N+](C)(C)CC1C (stereo not given) as the compound, how does the Potency read?
Answer: inconclusive [inhibitor, partial curve, poor fit]

Question: With C#CC(C)(C)NC(=O)c1ccc(-c2ccccc2F)cc1 as the compound, how does the Potency read?
Answer: inconclusive [inhibitor, partial curve]

Question: For Cc1cccc(NCc2cc(Cl)cc(Cl)c2O)n1, which “activity change, negative = growth inhibition” value is on record?
Answer: inactive: -7.88%

Question: For CC(C)C(C)(C#N)NC(=O)CN1C(=O)NC2(CCCc3ccccc32)C1=O (stereo not given), which “activity change, negative = growth inhibition” value is on record?
Answer: inactive: -7.88%

Question: For CN(C)c1ccc(N=Nc2ccccc2C(=O)OCC(=O)NC2CCCC2)cc1, which Potency is on record?
Answer: active: 25.9 µM

Question: Which Potency does the source give for NC(=O)c1c(NC(=O)C2c3ccccc3Oc3ccccc32)sc2c1CCCCC2 here?
Answer: inconclusive [inhibitor, single point]

Question: For COc1ccccc1NC(=O)Cc1ccc(-c2ccccc2)cc1, which Potency is on record?
Answer: inconclusive [inhibitor, partial curve, poor fit]

Question: For COc1ccc(-c2cc3c(=O)n(CC(=O)N4CCN(C)CC4)ncn3n2)cc1, which Potency is on record?
Answer: active: 20.6 µM

Question: With CCN(CC)CC#CCC(O)(c1ccccc1)C1CCCCC1 (stereo not given) as the compound, how does the Potency read?
Answer: inconclusive [inhibitor, single point]

Question: For COc1ccc(-c2ccc(CN3C(C)C(=O)N(Cc4cn(CCC5OCCO5)nn4)CCS3(=O)=O)cc2)cn1 (stereo not given), which Potency is on record?
Answer: inconclusive [inhibitor, partial curve, poor fit]

Question: With COc1ccc(C(=O)N2N=C(c3ccccc3)CC2(O)C(F)(F)F)cc1 (stereo not given) as the compound, how does the “activity change, negative = growth inhibition” value read?
Answer: inactive: -82.2%

Question: For Cc1ccc(-n2ncc(C(=O)N3CCN(c4ccccn4)CC3)c2C2CCN(C(=O)OC(C)(C)C)CC2)cc1, which Potency is on record?
Answer: inconclusive [inhibitor, full curve, poor fit]

Question: For COc1ccc(-c2noc(N3CCC(C(=O)Nc4ccc(F)cc4F)CC3)n2)cc1, which activity change, negative = growth inhibition is on record?
Answer: inconclusive: -30.1% [inhibitor]

Question: With Cc1sc2ncnc(N3CCC(C(=O)Nc4cc(Cl)ccc4Cl)CC3)c2c1C as the compound, how does the Potency read?
Answer: inconclusive [inhibitor, single point]

Question: Which Potency does the source give for CCn1nc2cc(C(=O)NCC34CC5CC(CC(C5)C3)C4)ccc2c1OC here?
Answer: inconclusive [inhibitor, partial curve]

Question: With CCCCSc1nc(C)cc(NC(=S)Nc2ccc(OC)cc2)n1 as the compound, how does the “activity change, negative = growth inhibition” value read?
Answer: inactive: -15.2%

Question: For CCc1nn(Cc2cccc(F)c2)c(=O)c2cc3cc(C)ccc3n12, which Potency is on record?
Answer: inconclusive [inhibitor, single point]

Question: For COc1ccc(S(=O)(=O)NCC2CCCN(C(=O)c3cccnc3)C2)cc1 (stereo not given), which “activity change, negative = growth inhibition” value is on record?
Answer: inactive: 7.79%

Question: With COCCn1c(=NC(=O)c2ccc(S(=O)(=O)N3CCc4ccccc4C3)cc2)sc2cc(S(N)(=O)=O)ccc21 as the compound, how does the Potency read?
Answer: inconclusive [inhibitor, single point]

Question: For CCN(Cc1ccncc1)C(=S)Nc1ccc(Cl)cc1, which Potency is on record?
Answer: inconclusive [inhibitor, single point]

Question: With Cc1ccc(C)c(N2C(=O)CN=C2Nc2ccccc2Cl)c1 as the compound, how does the “activity change, negative = growth inhibition” value read?
Answer: inactive: 1.55%

Question: Which Potency does the source give for Cc1ccc(NC(=O)c2cc(S(=O)(=O)N3CCCc4ccccc43)ccc2F)cc1F here?
Answer: active: 16.4 µM

Question: Which Potency does the source give for COc1ccc(Nc2c(-c3ccc(C)o3)nc3ccc(Cl)cn23)cc1 here?
Answer: active: 7.31 µM

Question: With Oc1ccc(/C=N/Nc2nccnc2Cl)cc1 as the compound, how does the Potency read?
Answer: inconclusive [inhibitor, single point]

Question: Which Potency does the source give for COc1cccc(Nc2nc(NCCO)c3ccccc3n2)c1 here?
Answer: active: 4.61 µM

Question: Which Potency does the source give for N#Cc1nc(COc2ccc(-c3ccccc3)cc2)oc1NCCCN1CCOCC1 here?
Answer: active: 23.1 µM

Question: With COc1ccc(CN2CCCC(C(=O)N3CCCCC3)C2)c(OC)c1 (stereo not given) as the compound, how does the Potency read?
Answer: inconclusive [inhibitor, partial curve]

Question: Which Potency does the source give for COc1ccc(C(=O)NC(=S)NC(C)C)cc1Br here?
Answer: inconclusive [inhibitor, single point]

Question: With COc1ccc(NS(=O)(=O)c2ccc(C)c(C(=O)N3CCC3)c2)cc1 as the compound, how does the Potency read?
Answer: inconclusive [inhibitor, single point]

Question: Which Potency does the source give for COc1cccc(CNC(=O)CSCc2cnn(-c3ccccc3)c2-n2cccc2)c1OC here?
Answer: active: 25.9 µM

Question: Which Potency does the source give for Cc1ccc(S(=O)(=O)N2CCOCC2)cc1C(=O)OCC(=O)NC1CCCC(C)C1C (stereo not given) here?
Answer: active: 14.6 µM

Question: With S=c1[nH]nc(-c2ccc(Cl)cc2)n1Cc1ccccc1 as the compound, how does the Potency read?
Answer: inconclusive [inhibitor, single point]

Question: Which Potency does the source give for CCOc1ccc(CNC(=O)C2CCCN(S(=O)(=O)N3CCC(C)CC3)C2)cc1OC (stereo not given) here?
Answer: inconclusive [inhibitor, single point]

Question: For CN1C(=O)C(C)(C)c2cc(S(=O)(=O)N3CCN(c4ccccc4F)CC3)ccc21, which Potency is on record?
Answer: inconclusive [inhibitor, single point]
